The source of these data is paper PMC4336329 (PLoS ONE, 2015).

SMILES strings stand for the structures. Out of some 310,000 compounds screened, about 14,000 (4.5%) showed an effect of 50% or more. Effects have a minus sign here. This is one part of the list.
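Also: peak tail current of the secondary pulse compared with the same well before compound.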

The target of this experiment is human ether-à-go-go-related gene (hERG) potassium channel (human, UniProt Q12809). As to the kind of experiment: primary screen, population patch clamp on CHO cells stably expressing hERG.
Sequence of human ether-à-go-go-related gene (hERG) potassium channel (Q12809 whole entry, looked up): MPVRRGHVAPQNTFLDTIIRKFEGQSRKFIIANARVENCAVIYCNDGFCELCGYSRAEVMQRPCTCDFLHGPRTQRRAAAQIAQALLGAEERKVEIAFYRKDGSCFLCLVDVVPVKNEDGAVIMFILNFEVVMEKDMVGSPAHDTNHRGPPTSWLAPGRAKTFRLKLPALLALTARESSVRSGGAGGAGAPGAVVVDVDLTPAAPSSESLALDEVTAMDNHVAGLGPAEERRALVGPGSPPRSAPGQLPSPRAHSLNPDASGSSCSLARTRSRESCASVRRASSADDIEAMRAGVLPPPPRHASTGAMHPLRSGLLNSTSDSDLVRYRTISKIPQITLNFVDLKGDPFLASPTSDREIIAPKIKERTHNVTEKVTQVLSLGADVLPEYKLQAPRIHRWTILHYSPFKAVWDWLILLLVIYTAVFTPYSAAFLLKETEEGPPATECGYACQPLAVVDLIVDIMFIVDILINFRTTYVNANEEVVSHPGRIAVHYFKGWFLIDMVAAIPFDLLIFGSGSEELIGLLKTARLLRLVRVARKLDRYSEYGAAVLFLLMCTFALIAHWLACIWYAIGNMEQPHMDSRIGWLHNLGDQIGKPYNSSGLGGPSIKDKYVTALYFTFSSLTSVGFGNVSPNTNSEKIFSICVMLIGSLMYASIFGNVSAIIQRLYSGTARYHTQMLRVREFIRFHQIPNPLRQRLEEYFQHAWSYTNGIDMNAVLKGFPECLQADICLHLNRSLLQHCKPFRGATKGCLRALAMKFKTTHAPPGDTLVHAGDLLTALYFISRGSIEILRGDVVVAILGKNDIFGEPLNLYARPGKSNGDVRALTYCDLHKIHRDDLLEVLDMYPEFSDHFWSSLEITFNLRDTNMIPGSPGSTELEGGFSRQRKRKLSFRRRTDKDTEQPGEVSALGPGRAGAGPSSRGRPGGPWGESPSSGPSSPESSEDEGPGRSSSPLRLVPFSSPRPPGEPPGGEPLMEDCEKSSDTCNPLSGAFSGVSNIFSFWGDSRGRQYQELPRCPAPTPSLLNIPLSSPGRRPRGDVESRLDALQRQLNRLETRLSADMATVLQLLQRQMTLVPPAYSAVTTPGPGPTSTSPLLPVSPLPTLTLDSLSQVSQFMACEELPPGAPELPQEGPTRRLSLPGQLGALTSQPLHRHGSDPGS
`CCCCOc1ccc(-c2nnc(N)s2)cc1`: the “hERG current change (%, negative = inhibition) at 10uM” value is on record as 2.84%.

For the compound `CCCCCn1c(N2CCC(Cc3ccccc3)CC2)nc2c1c(=O)[nH]c(=O)n2C`, the “hERG current change (%, negative = inhibition) at 10uM” value is reported as -11%.

`CCOCCCNC(=O)C(c1ccccc1)N(Cc1cccs1)C(=O)CNC(=O)c1ccccc1` (centres unmarked): the “hERG current change (%, negative = inhibition) at 10uM” value is recorded as -7.15%.

As for `CC(=O)Nc1c(O)nc(SC/C=C/CSc2nc(O)c(NC(C)=O)c(=O)[nH]2)[nH]c1=O`, the “hERG current change (%, negative = inhibition) at 10uM” value was determined as 17%.

On to `Cc1ccc(NC(=O)C2CC(=O)n3c(nc4ccccc43)N2)cc1C` (centres unmarked), for which the “hERG current change (%, negative = inhibition) at 10uM” value stood at 2.55%.

`CSc1nc2ccccc2c(=O)n1C1CCCCC1`: the “hERG current change (%, negative = inhibition) at 10uM” value is listed as 12.2%.

Regarding `CCOc1ccc(C(=O)C2CCN(C(=O)c3ccc([N+](=O)[O-])cc3)CC2)cc1`, the “hERG current change (%, negative = inhibition) at 10uM” value is recorded as -79.9%.

As for `CCOc1ccc(NC(=O)COC(=O)c2cc([N+](=O)[O-])ccc2N2CCOCC2)cc1`, the “hERG current change (%, negative = inhibition) at 10uM” value is recorded as -43.8%.

On to `c1ccc2c(CCNC3=NCCC3)c[nH]c2c1`, for which the “hERG current change (%, negative = inhibition) at 10uM” value turned out to be 11.7%.

Consider `COc1ccc(C2(CNC(=O)Cc3ccc(OC)c(OC)c3)CCCC2)cc1`, for which the “hERG current change (%, negative = inhibition) at 10uM” value is reported as -16.8%.

As for `O=C(N/N=C\c1ccc2c(c1)OCO2)c1cncc(Br)c1`, the “hERG current change (%, negative = inhibition) at 10uM” value was determined as 10.2%.

In the case of `O=C(COc1ccccc1[N+](=O)[O-])Nc1ccc2oc(=O)ccc2c1`, the “hERG current change (%, negative = inhibition) at 10uM” value is on record as 22.1%.

With `O=C(Nc1nnc(-c2ccc3c(c2)CCCC3)o1)c1ccc(Cl)cc1Cl`, the “hERG current change (%, negative = inhibition) at 10uM” value is recorded as -2.79%.

In the case of `O=C(O)CCn1nnc(-c2cccs2)n1`, the “hERG current change (%, negative = inhibition) at 10uM” value turned out to be 7.58%.

On to `Nc1nc(NCc2ccco2)nc(N2CCN(Cc3ccccc3)CC2)c1[N+](=O)[O-]`, for which the “hERG current change (%, negative = inhibition) at 10uM” value is on record as -41.9%.

Take `CN(CC(=O)Nc1ccccc1C(F)(F)F)C(=O)COc1ncnc2sccc12`: the “hERG current change (%, negative = inhibition) at 10uM” value is -3.3%.

Turning to `O=C(NCC1COc2ccccc2O1)Nc1ccccc1F` (centres unmarked), the “hERG current change (%, negative = inhibition) at 10uM” value is given as -4.46%.

For the compound `Cc1csc(N/N=C/c2ccccc2F)n1`, the “hERG current change (%, negative = inhibition) at 10uM” value is reported as 22.7%.

With `NC(=O)CSc1nnc(-c2ccccn2)n1Cc1ccco1`, the “hERG current change (%, negative = inhibition) at 10uM” value was 4.36%.

`CC(C)CCNC(=O)Cn1c(=O)oc2cc(S(=O)(=O)N3CCc4ccccc43)ccc21`: the “hERG current change (%, negative = inhibition) at 10uM” value amounted to 1.35%.

Regarding `CC(C)(C)NC(=O)CSc1nsc(SCC(=O)NC(C)(C)C)c1C#N`, the “hERG current change (%, negative = inhibition) at 10uM” value is -5.05%.

For `CSCCC(N=C(NS(=O)(=O)c1ccc(Br)cc1)c1ccccc1)C(=O)O` (centres unmarked), the “hERG current change (%, negative = inhibition) at 10uM” value is given as 17.3%.

For `CSc1ccc(CN(C)CC(=O)Nc2ccc(C)cc2Br)cc1`, the “hERG current change (%, negative = inhibition) at 10uM” value is given as -11.7%.

Take `CC(C)NC(=O)C1CCCN(S(=O)(=O)c2cccc3nonc23)C1` (centres unmarked): the “hERG current change (%, negative = inhibition) at 10uM” value is recorded as -1.94%.

For `O=C(CN1CCN(c2ccc(O)cc2)CC1)Nc1cc(S(=O)(=O)N2CCOCC2)ccc1Cl`, the “hERG current change (%, negative = inhibition) at 10uM” value is on record as -11.7%.

Take `Cc1ccc(O)c(NC(=O)C2CC(c3ccc(F)cc3)=NO2)c1` (centres unmarked): the “hERG current change (%, negative = inhibition) at 10uM” value is on record as -3.98%.

Take `CCc1cccc(NC(=O)CS(=O)Cc2nc(-c3ccc(C)cc3)oc2C)c1` (centres unmarked): the “hERG current change (%, negative = inhibition) at 10uM” value is on record as -19.8%.

Regarding `CN(C)C=O.Cc1ccccc1NC(=O)COC(=O)C1=COCCO1`, the “hERG current change (%, negative = inhibition) at 10uM” value stood at 5.8%.

Turning to `Nc1cc([N+](=O)[O-])ccc1N1C(=O)CCCC1=O`, the “hERG current change (%, negative = inhibition) at 10uM” value was determined as 14.5%.

Consider `COc1ccc(NC(=O)c2cc3ccc(O)cc3o/c2=N\O)cc1`, for which the “hERG current change (%, negative = inhibition) at 10uM” value amounted to 2.99%.

Regarding `COc1ccc(NC(=O)CCSc2nnnn2C)cc1`, the “hERG current change (%, negative = inhibition) at 10uM” value is on record as 9.45%.

On to `CC(C)C[C@H](NC(=O)c1[nH]cnc1C(=O)Nc1ccccc1)C(=O)OC(C)(C)C`, for which the “hERG current change (%, negative = inhibition) at 10uM” value was -1.86%.

Regarding `Cc1ccc(C(=O)NCCSCc2ccccc2)cc1[N+](=O)[O-]`, the “hERG current change (%, negative = inhibition) at 10uM” value was -34.3%.

For the compound `CC(=O)Nc1ccc(S(=O)(=O)NC2=C(N3CCN(c4ccc(F)cc4)CC3)C(=O)c3ccccc3C2=O)cc1`, the “hERG current change (%, negative = inhibition) at 10uM” value came out at 5.95%.

Turning to `COCCNCC(=O)Nc1ccccc1Sc1ccccc1.O=C(O)C(=O)O`, the “hERG current change (%, negative = inhibition) at 10uM” value is reported as -13.6%.

On to `COc1ccc2nc3oc(C(=O)N4CCC(C(N)=O)CC4)cc3cc2c1`, for which the “hERG current change (%, negative = inhibition) at 10uM” value is -2.11%.

As to `CC(Oc1ccccc1Cl)C(=O)Nc1ccccc1C(=O)N1CCOCC1` (centres unmarked), the “hERG current change (%, negative = inhibition) at 10uM” value is -0.907%.

As to `CCC(C)(C(=O)NC1CCCC1)N(C(=O)CC1NC(=O)NC1=O)c1c(C)n(C)n(-c2ccccc2)c1=O` (centres unmarked), the “hERG current change (%, negative = inhibition) at 10uM” value came to 3.1%.

As for `COc1ccccc1C(=O)NCCC(=O)Nc1ccc(C)cn1`, the “hERG current change (%, negative = inhibition) at 10uM” value was found to be 12.6%.

With `Clc1cccc(N=C2NN=C(c3ccc4c(c3)OCCO4)CS2)c1`, the “hERG current change (%, negative = inhibition) at 10uM” value worked out at 16.4%.

As to `CC1(C)Cc2ccccc2C(NNC(=O)c2ccccn2)=N1`, the “hERG current change (%, negative = inhibition) at 10uM” value is given as 2.95%.

As to `CCc1cc(/C(Cc2cscn2)=N\O)c(O)cc1O`, the “hERG current change (%, negative = inhibition) at 10uM” value is given as 3.66%.

In the case of `Cc1onc(-c2ccccc2)c1C(=O)N1CCN(C)CC1`, the “hERG current change (%, negative = inhibition) at 10uM” value was 0.556%.

Regarding `O=C(O)c1ccccc1Sc1c([N+](=O)[O-])cc(C(F)(F)F)cc1[N+](=O)[O-]`, the “hERG current change (%, negative = inhibition) at 10uM” value is on record as 36.5%.

`O=c1c2ccccc2nc(/C=C/c2cc(Br)ccc2O)n1CCCO`: the “hERG current change (%, negative = inhibition) at 10uM” value is on record as 11.5%.

Turning to `CC1=C(C(=O)OC2CCCCC2)C(c2cccc([N+](=O)[O-])c2)NC(=O)N1` (centres unmarked), the “hERG current change (%, negative = inhibition) at 10uM” value is -5.62%.

Consider `O=S(=O)(Oc1ccccc1)c1cccnc1`, for which the “hERG current change (%, negative = inhibition) at 10uM” value was 9.51%.

On to `OCC[C@H]1C[C@@H](O)[C@H](O)[C@]2(CCc3ccccc3O2)O1`, for which the “hERG current change (%, negative = inhibition) at 10uM” value came to 6.93%.

Take `CCn1nnnc1SCC(=O)c1ccc(C)cc1`: the “hERG current change (%, negative = inhibition) at 10uM” value is -9.66%.

Take `CCOc1ccc2[nH]c(=O)c(CN(CC3COCCO3)C(=O)c3ccc(C)cc3)cc2c1` (centres unmarked): the “hERG current change (%, negative = inhibition) at 10uM” value is -20.7%.

As for `COc1ccc(S(=O)(=O)NC(C)C(=O)NCc2cccnc2)cc1C` (centres unmarked), the “hERG current change (%, negative = inhibition) at 10uM” value is reported as -27.9%.

In the case of `C=CCSc1nnc2c(n1)OC(c1cccnc1)N(C(C)=O)c1ccccc1-2` (centres unmarked), the “hERG current change (%, negative = inhibition) at 10uM” value was -13.8%.

`COc1ccc(C(=O)N2CCN(Cc3cn[nH]c3-c3ccc(OC)cc3F)CC2)cc1`: the “hERG current change (%, negative = inhibition) at 10uM” value is given as -38.3%.

In the case of `O=Nc1c(O)n(Cc2ccc(Cl)c(Cl)c2)c2ccccc12`, the “hERG current change (%, negative = inhibition) at 10uM” value is recorded as -5.57%.

Regarding `O=C(C1CCCCC1)N1CCc2[nH]c3ccc(F)cc3c2C1`, the “hERG current change (%, negative = inhibition) at 10uM” value is on record as -3.94%.

In the case of `Nc1nc(NCCCN2CCOCC2)nc(Nc2ccccc2F)c1[N+](=O)[O-]`, the “hERG current change (%, negative = inhibition) at 10uM” value was -18.8%.
